Among all 310,000 compounds or so, about 14,000 (4.5%) showed an effect of 50% or more. Effects have a minus sign here. The list shows a part of the results.
The compounds below were run against human ether-à-go-go-related gene (hERG) potassium channel (human, UniProt Q12809) (assay: primary screen, population patch clamp on CHO cells stably expressing hERG).
Chain of human ether-à-go-go-related gene (hERG) potassium channel (Q12809 whole entry, looked up): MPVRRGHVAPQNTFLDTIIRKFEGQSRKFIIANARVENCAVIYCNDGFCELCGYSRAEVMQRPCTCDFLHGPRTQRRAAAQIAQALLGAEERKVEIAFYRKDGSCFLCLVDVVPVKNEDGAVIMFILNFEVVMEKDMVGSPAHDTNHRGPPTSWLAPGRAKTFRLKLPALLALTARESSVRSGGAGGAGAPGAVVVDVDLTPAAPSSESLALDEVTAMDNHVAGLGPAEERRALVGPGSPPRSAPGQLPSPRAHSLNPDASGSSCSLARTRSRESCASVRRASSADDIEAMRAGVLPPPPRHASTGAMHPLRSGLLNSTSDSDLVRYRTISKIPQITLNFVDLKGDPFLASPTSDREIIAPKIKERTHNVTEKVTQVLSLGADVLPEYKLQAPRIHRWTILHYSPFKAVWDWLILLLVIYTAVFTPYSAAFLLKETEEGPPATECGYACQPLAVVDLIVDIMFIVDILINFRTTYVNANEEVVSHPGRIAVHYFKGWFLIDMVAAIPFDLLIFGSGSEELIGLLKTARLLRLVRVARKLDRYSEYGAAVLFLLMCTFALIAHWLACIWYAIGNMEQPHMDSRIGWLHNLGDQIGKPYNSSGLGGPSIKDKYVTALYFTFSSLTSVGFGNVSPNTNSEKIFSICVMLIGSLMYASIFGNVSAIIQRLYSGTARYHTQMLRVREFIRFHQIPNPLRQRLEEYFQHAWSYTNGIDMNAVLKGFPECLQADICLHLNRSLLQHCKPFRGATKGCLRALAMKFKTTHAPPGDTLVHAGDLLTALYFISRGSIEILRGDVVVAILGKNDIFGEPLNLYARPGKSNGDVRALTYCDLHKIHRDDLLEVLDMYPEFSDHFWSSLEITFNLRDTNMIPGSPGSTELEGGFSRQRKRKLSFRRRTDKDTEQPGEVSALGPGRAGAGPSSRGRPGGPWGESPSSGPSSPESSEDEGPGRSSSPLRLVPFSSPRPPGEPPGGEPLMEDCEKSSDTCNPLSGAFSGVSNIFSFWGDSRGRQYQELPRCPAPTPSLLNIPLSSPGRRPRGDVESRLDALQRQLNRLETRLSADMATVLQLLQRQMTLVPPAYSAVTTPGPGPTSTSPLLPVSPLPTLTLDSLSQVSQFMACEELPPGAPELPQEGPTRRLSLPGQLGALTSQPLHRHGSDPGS
For `Cc1cc(C)cc(NC(N)=S)c1`, the “hERG current change (%, negative = inhibition) at 10uM” value was 3.83%. With `Cl.NCC12CC3CC(CC(O)(C3)C1)C2` the “hERG current change (%, negative = inhibition) at 10uM” value was 13.2%. `CC1(C)Cc2ccccc2C2=NNC(=O)C2=N1` was tested, and the “hERG current change (%, negative = inhibition) at 10uM” value was 15.9%. For `O=C(O)c1ccc2c(c1)C(=O)N(CCCCCCCN1C(=O)c3ccc(C(=O)O)cc3C1=O)C2=O`, the “hERG current change (%, negative = inhibition) at 10uM” value was 20.7%. In the case of `CCOc1ccc2nc(NC(=O)c3cnccn3)sc2c1`, the “hERG current change (%, negative = inhibition) at 10uM” value is reported as 2.76%. For `Cc1cc(C)cc(NC(=S)/C(=C(\[O-])c2ccc(Cl)cc2Cl)[n+]2ccccc2)c1`, the “hERG current change (%, negative = inhibition) at 10uM” value was 0.16%. For `CC1CCC2C(=O)N(c3ccc(Cc4ccncc4)cc3)C(=O)C2C1` (stereo not shown), the “hERG current change (%, negative = inhibition) at 10uM” value was 10.4%. For `CC(C)(C)c1cc(NS(=O)(=O)c2cccs2)no1`, the “hERG current change (%, negative = inhibition) at 10uM” value was 15.6%. For `Cc1ccc(OCC(=O)NC2CCSc3ccccc32)cc1` (stereo not shown), the “hERG current change (%, negative = inhibition) at 10uM” value was -11.4%. With `S=c1nc[nH]c2c1sc1nc(N3CCOCC3)c3c(c12)CCCC3` the “hERG current change (%, negative = inhibition) at 10uM” value was 35.3%. In the case of `NS(=O)(=O)c1cccc(NC(=O)CNC(=O)CC23CC4CC(CC(C4)C2)C3)c1`, the “hERG current change (%, negative = inhibition) at 10uM” value is reported as 7.32%. `COc1ccc(C(=O)NCCCNC(=O)c2ccco2)cc1OC` was tested, and the “hERG current change (%, negative = inhibition) at 10uM” value was 6.63%. In the case of `Cc1nn(-c2ncc(C(F)(F)F)cc2Cl)c(=O)n1-c1ccccc1`, the “hERG current change (%, negative = inhibition) at 10uM” value is reported as 19.9%. In the case of `C=CCN1C(=O)c2ccc(C(=O)NCCOc3ccccc3F)cc2C1=O`, the “hERG current change (%, negative = inhibition) at 10uM” value is reported as -28.7%. In the case of `C=CCNCCCCOc1ccccc1-c1ccccc1.O=C(O)C(=O)O`, the “hERG current change (%, negative = inhibition) at 10uM” value is reported as -19.3%. `O=C(Oc1ccccc1C(=S)N1CCCCC1)c1cc([N+](=O)[O-])cc([N+](=O)[O-])c1` was tested, and the “hERG current change (%, negative = inhibition) at 10uM” value was 2.81%. With `COc1ccc(OC)c(NC(=O)c2sc3ncnc(N4CCN(c5ccccn5)CC4)c3c2C)c1` the “hERG current change (%, negative = inhibition) at 10uM” value was -4.37%. For `O=CN1Cc2[nH]c3ccccc3c2N(c2ccc(Cl)cc2)C1=O`, the “hERG current change (%, negative = inhibition) at 10uM” value was -2.87%. For `COc1ccccc1OCC(=O)/C=C1/N(C)c2ccccc2C1(C)C`, the “hERG current change (%, negative = inhibition) at 10uM” value was -27.3%. With `Cn1c(C(=O)N(Cc2ccccc2)Cc2cccs2)cc2sccc21` the “hERG current change (%, negative = inhibition) at 10uM” value was -6.39%. With `CC1=NNC(=O)C1CCC(=O)N/N=C(\C)c1ccccc1` (stereo not shown) the “hERG current change (%, negative = inhibition) at 10uM” value was 28.3%. For `CCn1c(SCC(=O)NCC2CCCO2)nc2cc(S(=O)(=O)N3CCCCC3)ccc21` (stereo not shown), the “hERG current change (%, negative = inhibition) at 10uM” value was -21.2%. With `COc1ccc(OC)c(-n2nnnc2SCC(=O)Nc2nc(C)c(C)s2)c1` the “hERG current change (%, negative = inhibition) at 10uM” value was -1.73%. For `O=C(CSc1ccc2nnc(CCNC(=O)c3ccccc3)n2n1)NCCc1ccccc1`, the “hERG current change (%, negative = inhibition) at 10uM” value was 2.97%. With `Cl.NCCCC[C@@H](C(=O)N1CCNCC1)n1cc([C@@H](N)CO)nn1` the “hERG current change (%, negative = inhibition) at 10uM” value was -0.997%. `C/C(=N\NC(=O)CC1N=C(Cc2ccccc2)NNC1=O)c1ccc(C)cc1` (stereo not shown) was tested, and the “hERG current change (%, negative = inhibition) at 10uM” value was -7.11%. With `Cc1nnc(SCc2cccc3ccccc23)s1` the “hERG current change (%, negative = inhibition) at 10uM” value was -22.8%. For `Cc1ccccc1CSc1nc(C(C)(C)C)cc(=O)[nH]1`, the “hERG current change (%, negative = inhibition) at 10uM” value was 11.8%. With `Cc1ccc2c(c1)CC1(CN2C)C(=O)NC(=O)N(c2ccc(C)c(C)c2)C1=O` (stereo not shown) the “hERG current change (%, negative = inhibition) at 10uM” value was -8.83%. In the case of `CCC1CCCCN1CCCNS(=O)(=O)c1ccc2c(c1)oc(=O)n2C` (stereo not shown), the “hERG current change (%, negative = inhibition) at 10uM” value is reported as 3.32%. For `CC(NCC(O)COc1ccc(Br)cc1)c1ccccc1.Cl` (stereo not shown), the “hERG current change (%, negative = inhibition) at 10uM” value was 0.452%. In the case of `COc1ccc2c(CC(=O)OCC(=O)Nc3sc4c(c3C#N)CCC(C)C4)coc2c1` (stereo not shown), the “hERG current change (%, negative = inhibition) at 10uM” value is reported as 11.4%. With `O=C(O)[C@H](Cc1ccccc1)NC(=O)N1CCN(c2cccc(C(F)(F)F)c2)CC1` the “hERG current change (%, negative = inhibition) at 10uM” value was 10.2%. For `COc1ccc(OC)c(NC(=O)C(CC(=O)O)NCc2ccco2)c1` (stereo not shown), the “hERG current change (%, negative = inhibition) at 10uM” value was 25%. With `COc1ccc(NC(=O)c2cc([N+](=O)[O-])ccc2N2CCCC2)cc1` the “hERG current change (%, negative = inhibition) at 10uM” value was -1.73%. With `Cc1oc2cc(OC(=O)c3ccco3)ccc2c(=O)c1-c1nc2ccccc2n1C` the “hERG current change (%, negative = inhibition) at 10uM” value was 25.1%. In the case of `CC(C)OC(=O)Cn1nnc(-c2ccccc2)n1`, the “hERG current change (%, negative = inhibition) at 10uM” value is reported as 0.0206%. `COc1ccc(NC(=S)NC(NC(=O)c2ccc(Cl)cc2Cl)C(Cl)(Cl)Cl)c([N+](=O)[O-])c1` (stereo not shown) was tested, and the “hERG current change (%, negative = inhibition) at 10uM” value was 10.9%. For `CC(C)(C)C(=O)Nc1ccc(-c2csnn2)cc1`, the “hERG current change (%, negative = inhibition) at 10uM” value was 8.19%. In the case of `Cc1ccc(C(=O)N2C3C=CC(C3)C2(C(F)(F)F)C(F)(F)F)cc1` (stereo not shown), the “hERG current change (%, negative = inhibition) at 10uM” value is reported as -12%. With `CC(=O)NC(CSc1cc(C)nc2ccc(Br)cc12)C(=O)O` (stereo not shown) the “hERG current change (%, negative = inhibition) at 10uM” value was 13.1%. In the case of `O=C(O)CNc1ccc(S(=O)(=O)C(F)(F)F)cc1[N+](=O)[O-]`, the “hERG current change (%, negative = inhibition) at 10uM” value is reported as -5.66%. `COc1ccc(NC(=S)Nc2cccc(C)n2)cc1` was tested, and the “hERG current change (%, negative = inhibition) at 10uM” value was 7.19%. In the case of `COc1ccc(CN(C(C)=O)c2ccccc2C(=O)O)cc1`, the “hERG current change (%, negative = inhibition) at 10uM” value is reported as 3.15%. In the case of `CC(C)(C)c1ccc(Oc2ncccc2NC(=O)c2cccs2)cc1`, the “hERG current change (%, negative = inhibition) at 10uM” value is reported as -1.31%. For `CCC(c1nnnn1Cc1ccco1)N1CCN(C(=O)c2ccco2)CC1.Cl` (stereo not shown), the “hERG current change (%, negative = inhibition) at 10uM” value was -20.6%. For `CN(c1ccccc1C(=O)O)S(C)(=O)=O`, the “hERG current change (%, negative = inhibition) at 10uM” value was 15.8%. `COc1ccc(Cl)cc1NC(=S)NNC(=O)CC(C)C` was tested, and the “hERG current change (%, negative = inhibition) at 10uM” value was 12.7%. For `O=c1oc2ccccc2c2c1ncn2C1CCCCC1`, the “hERG current change (%, negative = inhibition) at 10uM” value was -51.7%. `COc1ccccc1NC(=O)c1ccccc1-c1nc(-c2ccccc2OC)no1` was tested, and the “hERG current change (%, negative = inhibition) at 10uM” value was -57.7%. For `Clc1cc(Cl)cc(CSc2nnc(-c3sccc3-n3cccc3)o2)c1`, the “hERG current change (%, negative = inhibition) at 10uM” value was 3.61%. With `CC(NC(=O)CN(C)CC(=O)Nc1ccc(F)c(F)c1F)c1ccccc1` (stereo not shown) the “hERG current change (%, negative = inhibition) at 10uM” value was 10.2%. `O=C(Cc1ccsc1)NNC(=O)c1ccccc1Cl` was tested, and the “hERG current change (%, negative = inhibition) at 10uM” value was 3.62%. `O=C(NCCCc1ccccc1)Nc1cccc(Cl)c1` was tested, and the “hERG current change (%, negative = inhibition) at 10uM” value was -6.83%. `CC1=NNC(=O)C1CCC(=O)N/N=C/c1ccc(Cl)cc1` (stereo not shown) was tested, and the “hERG current change (%, negative = inhibition) at 10uM” value was 27.8%. `Cc1c(Cl)cccc1NC(=O)Nc1cnccn1` was tested, and the “hERG current change (%, negative = inhibition) at 10uM” value was 15.3%. With `CC(=O)c1ccc(NC(=O)c2ccccc2-c2ccccc2C(=O)O)cc1` the “hERG current change (%, negative = inhibition) at 10uM” value was 20.9%. For `CC1=C(C(N)=O)C(c2ccccc2[N+](=O)[O-])n2ncnc2N1` (stereo not shown), the “hERG current change (%, negative = inhibition) at 10uM” value was 7.69%.

From article PMC4336329 (PLoS ONE, 2015)
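Note: peak tail current of the secondary pulse compared with the same well before compound.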
